Legend:
Assay type in all cases: in vivo
Plasmopara viticola = experiment: Test Example G: Downy mildew on vine; settings: for Test G (control value class): 250 ppm spray; for Test G control value (downy mildew on vine): 250 ppm spray (2.5 ml/pot), preventive, control value class; for Test G (control value class, downy mildew on vine): 250 ppm, sprayed 2.5 ml/pot before inoculation
Excerpt: [Test Example G] Downy Mildew on Vine
Seeds of a test plant (grape variety: Neomuscat) were planted followed by cultivating until three to four first leaves appeared. […] After the sprayed dilutions were dried, a zoosporangia suspension (1-2×10^4 zoosporangia/ml) of Plasmopara viticola was inoculated to the plants by spraying.

Alternaia brassicicola = experiment: Test Example C: Alternaria sooty spot on cabbage; settings: for Test C (control value class): Alternaria sooty spot on cabbage; for Test C control value (Alternaria sooty spot on cabbage): preventive, control value class; for Test C (control value class, Alternaria sooty spot on cabbage): in vivo
Excerpt: [Test Example C] Alternaria Sooty Spot on Cabbage
Seeds of a test plant (cabbage variety: Shikidori) were planted followed by cultivating until the cotyledons extended.

Botrytis cinerea = experiment: Test Example B: Gray mold on tomato; settings: for Test B control value (gray mold on tomato): preventive, control value class; for Test B (control value class, gray mold on tomato): in vivo
Excerpt: [Test Example B] Gray Mold on Tomato
Seeds of a test plant (tomato variety: Oogata Fukuju) were planted followed by cultivating until three to five first leaves (true leaves) appeared.

Puccinia recondita = experiment: Test Example E: Brown rust on wheat; settings: for Test E control value (brown rust on wheat): preventive, control value class; for Test E (control value class, brown rust on wheat): in vivo
Excerpt: [Test Example E] Brown Rust on Wheat

[1] = system: Blumeria graminis f sp. hordei; experiment: Test Example D: Powdery mildew on barley; settings: for Test D control value (powdery mildew on barley): preventive, control value class; for Test D (control value class, powdery mildew on barley): in vivo
Excerpt: [Test Example D] Powdery Mildew on Barley
After the sprayed dilutions were dried, conidia of Blumeria graminis f sp. hordei were inoculated to the plants by shaking off.

[2] = Downy mildew on vine, 2.5 ml/pot, evaluated 7-10 days after inoculation
[3] = Gray mold on tomato, control value=100{1-(n/3)}
[4] = Brown rust on wheat, control value=100{1-(n/3)}
[5] = Powdery mildew on barley, control value=100{1-(n/3)}
[6] = evaluated 7-10 days after inoculation
[7] = downy mildew on vine, Plasmopara viticola, 7-10 days after inoculation
[8] = gray mold on tomato, Botrytis cinerea, 250 ppm spray
[9] = brown rust on wheat, Puccinia recondita, 250 ppm spray
[10] = powdery mildew on barley, 250 ppm spray

Structure (SMILES): Cc1cc(-c2cc(F)ccc2Cl)c(-c2c(F)cc(F)cc2F)n(C)c1=O [Compound 758]
- Test G (control value class) (Plasmopara viticola; [2]): H (H shows more than 50% of control values)
- Test C (control value class) (Alternaia brassicicola; control value=100{1-(n/3)}): H (H shows more than 50% of control values)
- Test B (control value class) (Botrytis cinerea; [3]): H (H shows more than 50% of control values)
- Test E (control value class) (Puccinia recondita; [4]): H (H shows more than 50% of control values)
- Test D (control value class) [1, 5]: H (H shows more than 50% of control values)

Structure (SMILES): CCn1c(-c2ccccc2F)c(-c2cc(OC)cc(OC)c2Cl)ccc1=O [Compound 232]
- Test G control value (downy mildew on vine) (Plasmopara viticola; 7-10 days after inoculation): L (L shows 50% or less of control values)
- Test C control value (Alternaria sooty spot on cabbage) (Alternaia brassicicola; 250 ppm spray): H (H shows more than 50% of control values)
- Test B control value (gray mold on tomato) (Botrytis cinerea; 250 ppm spray): H (H shows more than 50% of control values)
- Test E control value (brown rust on wheat) (Puccinia recondita; 250 ppm spray): H (H shows more than 50% of control values)
- Test D control value (powdery mildew on barley) ([1]; 250 ppm spray): H (H shows more than 50% of control values)

Structure (SMILES): Cn1c(-c2c(F)cccc2F)c(-c2cc(OC3CCCCC3)ccc2Cl)ccc1=O [Compound 296]
- Test G control value (downy mildew on vine) (Plasmopara viticola; 7-10 days after inoculation): L (L shows 50% or less of control values)
- Test C control value (Alternaria sooty spot on cabbage) (Alternaia brassicicola; 250 ppm spray): L (L shows 50% or less of control values)
- Test B control value (gray mold on tomato) (Botrytis cinerea; 250 ppm spray): H (H shows more than 50% of control values)
- Test E control value (brown rust on wheat) (Puccinia recondita; 250 ppm spray): L (L shows 50% or less of control values)
- Test D control value (powdery mildew on barley) ([1]; 250 ppm spray): L (L shows 50% or less of control values)

Structure (SMILES): Cn1c(-c2c(F)cccc2F)c(-c2ccc(F)cc2F)cc(Cl)c1=O [Compound 646]
- Test G (control value class, downy mildew on vine) (Plasmopara viticola; [6]): L (L shows 50% or less of control values)
- Test C (control value class, Alternaria sooty spot on cabbage) (Alternaia brassicicola): H (H shows more than 50% of control values)
- Test B (control value class, gray mold on tomato) (Botrytis cinerea): H (H shows more than 50% of control values)
- Test E (control value class, brown rust on wheat) (Puccinia recondita): H (H shows more than 50% of control values)
- Test D (control value class, powdery mildew on barley) [1]: L (L shows 50% or less of control values)

Structure (SMILES): C#CCN1C(=O)CCC(c2cc(OC)ccc2Cl)=C1c1c(F)cccc1F [Compound 456]
- Test G (control value class) (Plasmopara viticola; [7]): L (L shows 50% or less of control values)
- Test C (control value class) (Alternaia brassicicola; 250 ppm spray): H (H shows more than 50% of control values)
- Test B (control value class) (Botrytis cinerea; [8]): H (H shows more than 50% of control values)
- Test E (control value class) (Puccinia recondita; [9]): H (H shows more than 50% of control values)
- Test D (control value class) [1, 10]: H (H shows more than 50% of control values)

Structure (SMILES): CCn1c(-c2c(F)cc(F)cc2F)c(-c2cccc(O)c2Cl)cc(Cl)c1=O [Compound 806]
- Test G (control value class) (Plasmopara viticola; [2]): H (H shows more than 50% of control values)
- Test C (control value class) (Alternaia brassicicola; control value=100{1-(n/3)}): H (H shows more than 50% of control values)
- Test B (control value class) (Botrytis cinerea; [3]): H (H shows more than 50% of control values)
- Test E (control value class) (Puccinia recondita; [4]): H (H shows more than 50% of control values)
- Test D (control value class) [1, 5]: H (H shows more than 50% of control values)

Structure (SMILES): CCn1c(-c2c(F)cccc2F)c(-c2cc(Cl)cc(Cl)c2Cl)cc(Cl)c1=O [Compound 451]
- Test G (control value class) (Plasmopara viticola; [7]): L (L shows 50% or less of control values)
- Test C (control value class) (Alternaia brassicicola; 250 ppm spray): H (H shows more than 50% of control values)
- Test B (control value class) (Botrytis cinerea; [8]): H (H shows more than 50% of control values)
- Test E (control value class) (Puccinia recondita; [9]): H (H shows more than 50% of control values)
- Test D (control value class) [1, 10]: H (H shows more than 50% of control values)

Structure (SMILES): CCn1c(-c2c(F)cccc2F)c(-c2cccc(Cl)c2F)ccc1=O [Compound 472]
- Test G (control value class) (Plasmopara viticola; [7]): H (H shows more than 50% of control values)
- Test C (control value class) (Alternaia brassicicola; 250 ppm spray): H (H shows more than 50% of control values)
- Test B (control value class) (Botrytis cinerea; [8]): H (H shows more than 50% of control values)
- Test E (control value class) (Puccinia recondita; [9]): H (H shows more than 50% of control values)
- Test D (control value class) [1, 10]: H (H shows more than 50% of control values)

Structure (SMILES): CCn1c(-c2c(F)cccc2F)c(-c2cc(OCC(C)C)ccc2Cl)ccc1=O [Compound 258]
- Test G control value (downy mildew on vine) (Plasmopara viticola; 7-10 days after inoculation): H (H shows more than 50% of control values)
- Test C control value (Alternaria sooty spot on cabbage) (Alternaia brassicicola; 250 ppm spray): H (H shows more than 50% of control values)
- Test B control value (gray mold on tomato) (Botrytis cinerea; 250 ppm spray): L (L shows 50% or less of control values)
- Test E control value (brown rust on wheat) (Puccinia recondita; 250 ppm spray): L (L shows 50% or less of control values)
- Test D control value (powdery mildew on barley) ([1]; 250 ppm spray): H (H shows more than 50% of control values)

Structure (SMILES): COc1cccc(-c2cc(Br)c(=O)n(C)c2-c2c(F)cccc2F)c1Cl [Compound 786]
- Test G (control value class) (Plasmopara viticola; [2]): H (H shows more than 50% of control values)
- Test C (control value class) (Alternaia brassicicola; control value=100{1-(n/3)}): H (H shows more than 50% of control values)
- Test B (control value class) (Botrytis cinerea; [3]): H (H shows more than 50% of control values)
- Test E (control value class) (Puccinia recondita; [4]): H (H shows more than 50% of control values)
- Test D (control value class) [1, 5]: H (H shows more than 50% of control values)

Structure (SMILES): CCn1c(-c2c(F)cc(F)cc2F)c(-c2cc(F)ccc2Cl)ccc1=O [Compound 321, 5-(2-chloro-5-fluorophenyl)-1-ethyl-6-(2,4,6-trifluorophenyl)pyridine-2(1H)-one]
- Test G control value (downy mildew on vine) (Plasmopara viticola; 7-10 days after inoculation): H (H shows more than 50% of control values)
- Test C control value (Alternaria sooty spot on cabbage) (Alternaia brassicicola; 250 ppm spray): H (H shows more than 50% of control values)
- Test B control value (gray mold on tomato) (Botrytis cinerea; 250 ppm spray): H (H shows more than 50% of control values)
- Test E control value (brown rust on wheat) (Puccinia recondita; 250 ppm spray): H (H shows more than 50% of control values)
- Test D control value (powdery mildew on barley) ([1]; 250 ppm spray): H (H shows more than 50% of control values)

Structure (SMILES): CCn1c(-c2c(F)cc(F)cc2F)c(-c2cc(F)ccc2Cl)cc(Cl)c1=O [Compound 322]
- Test G control value (downy mildew on vine) (Plasmopara viticola; 7-10 days after inoculation): L (L shows 50% or less of control values)
- Test C control value (Alternaria sooty spot on cabbage) (Alternaia brassicicola; 250 ppm spray): H (H shows more than 50% of control values)
- Test B control value (gray mold on tomato) (Botrytis cinerea; 250 ppm spray): H (H shows more than 50% of control values)
- Test E control value (brown rust on wheat) (Puccinia recondita; 250 ppm spray): H (H shows more than 50% of control values)
- Test D control value (powdery mildew on barley) ([1]; 250 ppm spray): H (H shows more than 50% of control values)

Structure (SMILES): Cc1cc(-c2cc(Cl)ccc2Cl)c(-c2c(F)cccc2F)n(C)c1=O [Compound 471]
- Test G (control value class) (Plasmopara viticola; [7]): H (H shows more than 50% of control values)
- Test C (control value class) (Alternaia brassicicola; 250 ppm spray): H (H shows more than 50% of control values)
- Test B (control value class) (Botrytis cinerea; [8]): H (H shows more than 50% of control values)
- Test E (control value class) (Puccinia recondita; [9]): H (H shows more than 50% of control values)
- Test D (control value class) [1, 10]: H (H shows more than 50% of control values)

Structure (SMILES): CCn1c(-c2c(F)cc(F)cc2F)c(-c2ccccc2Br)ccc1=O [Compound 651]
- Test G (control value class, downy mildew on vine) (Plasmopara viticola; [6]): H (H shows more than 50% of control values)
- Test C (control value class, Alternaria sooty spot on cabbage) (Alternaia brassicicola): H (H shows more than 50% of control values)
- Test B (control value class, gray mold on tomato) (Botrytis cinerea): H (H shows more than 50% of control values)
- Test E (control value class, brown rust on wheat) (Puccinia recondita): H (H shows more than 50% of control values)
- Test D (control value class, powdery mildew on barley) [1]: H (H shows more than 50% of control values)

Structure (SMILES): CCn1c(-c2c(F)cccc2F)c(-c2cc(OCS(C)(=O)=O)ccc2Cl)ccc1=O [Compound 309]
- Test G control value (downy mildew on vine) (Plasmopara viticola; 7-10 days after inoculation): L (L shows 50% or less of control values)
- Test C control value (Alternaria sooty spot on cabbage) (Alternaia brassicicola; 250 ppm spray): H (H shows more than 50% of control values)
- Test B control value (gray mold on tomato) (Botrytis cinerea; 250 ppm spray): H (H shows more than 50% of control values)
- Test E control value (brown rust on wheat) (Puccinia recondita; 250 ppm spray): H (H shows more than 50% of control values)
- Test D control value (powdery mildew on barley) ([1]; 250 ppm spray): L (L shows 50% or less of control values)

Structure (SMILES): CCCCOc1cc(F)c(-c2c(-c3cc(OC)cc(OC)c3Cl)ccc(=O)n2C)c(F)c1 [Compound 282]
- Test G control value (downy mildew on vine) (Plasmopara viticola; 7-10 days after inoculation): L (L shows 50% or less of control values)
- Test C control value (Alternaria sooty spot on cabbage) (Alternaia brassicicola; 250 ppm spray): H (H shows more than 50% of control values)
- Test B control value (gray mold on tomato) (Botrytis cinerea; 250 ppm spray): H (H shows more than 50% of control values)
- Test E control value (brown rust on wheat) (Puccinia recondita; 250 ppm spray): H (H shows more than 50% of control values)
- Test D control value (powdery mildew on barley) ([1]; 250 ppm spray): L (L shows 50% or less of control values)

Reference: patent US10299477B2 (priority 2015, dated 2019)
